Sequences and labels used below:
B1: ENSG00000116991:stop:overlap|stop_codon|ENSG00000116991|stop_codon|NA|stop_codon (ssRNA)
RNA: GGGAGUUCUACAGUCCGACGAUCCGACAGCUCAGCUGCGGAAAUUCACAGAAUGGUUUUUCACCACCAUCGACAAAAAAUCUUAGCCAAUCCGCACCUCAUCAAGGGACCACUGGGAAAUGCCCCUUGUCCCUUUGAAGUCACCAACAGAGGAUUGAGCAUCA
B2: ENSG00000136451:be:win_1101|CDS|ENSG00000136451|bound_else_gene|NA|bound_elsewhere_windowed (ssRNA)
RNA: GGGAGUUCUACAGUCCGACGAUCGAGACUGUGGGAAGAAGCUGUUAAAGCAAGGAAGAAAGAAGCUGCUAACCUGUGCCAAACCUCCACGGCUGCUACGACACCUGUGACUCUCACUACUCCAUUCAGUAUAACAUCCUCUGUCAACAGAGGAUUGAGCAUCA
B3: chr3:128622278:128622381:-|CDS|ENSG00000163902|unk|total|mutant (ssRNA)
RNA: GGGAGUUCUACAGUCCGACGAUCAGCCAGGAUGAAGGCCGCCUGCAUCACAGAGCAGGUCUUGACCCUGGUCAACAAGAGAACCGGCCUUUACCGUCACUUUGACGAGACCGUCAACCGGUACAAGCAAUCCCGGGACAUCUCCAACAGAGGAUUGAGCAUCA
B4: chr4:150908776:150908877:-|CDS|ENSG00000198589|msi1|FALSE|bound_elsewhere (ssRNA)
RNA: GGGAGUUCUACAGUCCGACGAUCGUUGAUUUGUACUUAGAUUCUCUUUGUGGCAUACUAUUUAACUGUUUUUAAUUAAUUCUUAGGGUACAUUUAAAUUCAAAGCAGAAAGCGACCUUUUCCUUGCUGAGCAUCACAAACUUUCAACAGAGGAUUGAGCAUCA
B5: chr1:161190761:161190881:-|3pUTR|ENSG00000158859|msi1|FALSE|unique (ssRNA)
RNA: GGGAGUUCUACAGUCCGACGAUCUGCGGGUCACAGGAGGGAGGGGGAAGGCAGGGAGGGCCUGGGCCCCAGUUGUAUUUAUUUAGUAUUUAUUCACUUUUAUUUAGCACCAGGGAAGGGGACAAGGACUAGGGUCCUGGGGAACAACAGAGGAUUGAGCAUCA
B6: chr1:45003092:45003193:-|3pUTR|ENSG00000126107|msi1|FALSE|unique (ssRNA)
RNA: GGGAGUUCUACAGUCCGACGAUCGGAAUCUUCCACAAGCCCAGCACAAGCUGCCAGGCCUGAGCUACUUGAAGGGGGCCAUCUAGGUCCCCAACCCAUGGACUUUGCCUCCAUUUUCAGCUCCGCCUUUUUUCUCCUAUUUUCCAACAGAGGAUUGAGCAUCA

This is one part of the list.

The experiment deals with T1, UNK ZnF1-6 (called full-length) (human, UniProt Q9C0B0 30-357).
T1 sequence: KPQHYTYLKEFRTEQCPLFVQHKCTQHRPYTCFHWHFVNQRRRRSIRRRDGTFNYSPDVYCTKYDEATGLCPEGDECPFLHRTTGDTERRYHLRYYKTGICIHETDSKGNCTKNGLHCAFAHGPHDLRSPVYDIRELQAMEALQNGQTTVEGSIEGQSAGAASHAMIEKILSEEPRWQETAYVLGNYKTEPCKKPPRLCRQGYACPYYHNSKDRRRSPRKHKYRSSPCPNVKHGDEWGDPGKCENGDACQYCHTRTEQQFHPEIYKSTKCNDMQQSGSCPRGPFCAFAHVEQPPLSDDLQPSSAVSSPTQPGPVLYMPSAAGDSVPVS
Nature of the experiment: nsRBNS (natural sequence RNA bind-n-seq); RBNS binding buffer (assumed for nsRBNS): 25 mM Tris pH 7.5, 150 mM KCl, 3 mM MgCl2, 0.01% Triton X-100, 500 ug/ml BSA, 20 U/ml SUPERase-In, 4 C; UNK is unkempt and MSI1 is Musashi-1; names of the RNAs are library labels; protein concentration not given here; high values mean tight binding.
With B1, the binding signal was found to be 0.449 enrichment R.

Turning to B2, the binding signal came out at 0.886 enrichment R.

Take B3: the binding signal amounted to 0.384 enrichment R.

B4: the binding signal was found to be 3.69 enrichment R.

For the molecule B5, the binding signal amounted to 32.9 enrichment R.

With B6, the binding signal amounted to 0.645 enrichment R.

(Values after article PMC12136788.)
